Measured values: PubChem BioAssay AID2675 (National Center for Advancing Translational Sciences (NCATS), 2010)
Hit rate of the full screen: of about 280,000 compounds, about 100 (0.036%) were called active. Inconclusive means that the source gave no clear call. Such entries were picked first, then a sample of the others. Calls come from the whole dose curve; as a rule, active = well fitted inhibition curve with a large enough effect in the signal ratio, with a control signal flat (not every such curve was filed as active); inconclusive = small, poorly fitted or top-dose-only effect, or effect the other way, or a change in a side signal; inactive = no such curve, though single readings can be large or run the other way; the % refers to the signal ratio. Potencies of inconclusive entries are doubtful fits and often do not repeat. “Side channel” marks fits to a control or component signal instead of the main read-out.

What follows are molecules tested against Muscleblind-like protein 1 (Homo sapiens) (UniProt Q9NR56) (assay: qHTS Assay for Inhibitors of MBNL1-poly(CUG) RNA binding). Details: TR-FRET MBNL1-His/biotin-(CUG)12 binding, 665/545 ratio; activity change, negative = inhibition: at 57.5 µM (top of the series).
Sequence of UniProt Q9NR56 (Q9NR56 whole entry, looked up): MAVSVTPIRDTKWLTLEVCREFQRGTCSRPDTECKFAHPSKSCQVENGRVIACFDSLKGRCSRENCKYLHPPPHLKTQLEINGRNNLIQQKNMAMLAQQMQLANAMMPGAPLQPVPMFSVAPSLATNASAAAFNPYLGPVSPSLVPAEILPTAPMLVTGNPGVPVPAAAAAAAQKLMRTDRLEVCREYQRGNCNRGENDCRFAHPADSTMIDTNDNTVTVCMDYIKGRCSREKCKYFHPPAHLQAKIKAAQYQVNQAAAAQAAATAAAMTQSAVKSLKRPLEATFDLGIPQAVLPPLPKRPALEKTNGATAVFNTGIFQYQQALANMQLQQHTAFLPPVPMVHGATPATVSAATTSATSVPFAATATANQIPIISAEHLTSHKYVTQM
Procedure, shortened: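 TR-FRET between His-tagged MBNL1 and biotin-(CUG)12 RNA, detected with Tb anti-His antibody (0.055 ng/ul) and streptavidin-XL665 (5 nM), 60 min at room temperature. Compounds titrated 92 nM to 58 uM; 665/545 nm ratio normalized to buffer and complex controls.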
% is set by controls: 0 for no effect and ±100 for the full control effect; potency is the fitted concentration of half-maximal effect; tags give direction and shape of the fitted curve or compound fluorescence and quenching.

Compound | Potency | activity change, negative = inhibition
Cc1cccc(N2C(=O)c3cccnc3C2=O)c1 | inconclusive: 14.1 µM [quencher, side channel, partial curve] | –
COc1ccc(C2C(C(=O)c3cccs3)=C(O)C(=O)N2c2nncs2)cc1 (stereo not given) | inconclusive: 28.2 µM [quencher, side channel, partial curve] | –
COc1ccc(-c2nc3ccccc3c(=O)[nH]2)cc1 | inconclusive: 39.8 µM [fluorescent, single point] | –
Clc1ccccc1-c1nn2c(-c3ccccn3)nnc2s1 | – | inactive: -2.49%
N#C/C(=C\c1ccc(N2CCOCC2)o1)c1nc2ccccc2[nH]1 | inconclusive: 25.1 µM [quencher, partial curve] | –
COc1ccccc1NS(=O)(=O)c1cccc(C(=O)N/N=C/c2ccc3c(c2)OCCO3)c1 | – | inactive: 10.4%
CCOC(=O)/C(=C/c1ccc(F)cc1)NC(C)=O | inconclusive: 0.1 µM [fluorescent, side channel, full curve, poor fit] | –
COc1ccc(CN=Cc2[nH]c3ccc(Br)c(Cl)c3c2O)cc1 | inconclusive: 25.1 µM [quencher, side channel, single point] | –
Cc1cc(C(=O)N/N=C/c2cc(Cl)cc([N+](=O)[O-])c2O)n[nH]1 | inconclusive: 31.6 µM [quencher, side channel, single point] | –
CCC12CN(C(=O)c3ccc([N+](=O)[O-])cc3)CC(CC)(CN(C(=O)c3ccc([N+](=O)[O-])cc3)C1)C2=O | inconclusive: 2.82 µM [quencher, side channel, full curve, poor fit] | –
COc1ccc(NS(=O)(=O)c2ccc(N3CCN(CCO)CC3)c([N+](=O)[O-])c2)cc1 | inconclusive: 25.1 µM [quencher, side channel, partial curve] | –
Cn1c(=O)n(C)c2cc([N+](=O)[O-])c(N3CCN(S(C)(=O)=O)CC3)cc21 | inconclusive: 12.6 µM [quencher, side channel, partial curve] | –
CCOC(=O)C[n+]1c(C)csc1C | – | inactive: -11.1% [at 11.5 µM]
COc1ccccc1C1C(C(=O)c2ccco2)=C(O)C(=O)N1c1cc(C)on1 (stereo not given) | inconclusive: 28.2 µM [quencher, partial curve] | –
Cn1c(-c2cccc(F)c2)nc2c1c(=O)[nH]c(=O)n2Cc1ccccc1 | – | inactive: -4.63%
CCN1CCN(C2=CC3=CC(=C(C#N)C#N)CCC3CC2)CC1 (stereo not given) | inconclusive: 12.6 µM [quencher, side channel, partial curve] | –
CCCCCn1c(N(C)Cc2ccccc2)nc2c1c(=O)[nH]c(=O)n2C | inconclusive: 8.91 µM [quencher, side channel, single point] | –
CCOC(=O)C1=C(C)N(CC)C(=S)NC1c1ccccc1OC(F)F (stereo not given) | – | inactive: 2.83%
CCN(CC)CCCNC(=O)Cn1nc([N+](=O)[O-])c(Cl)c1C | inconclusive: 15.8 µM [quencher, side channel, partial curve, poor fit] | –
CCCCc1ccc(/C(C)=N/Nc2cc(N3CCOCC3)nc(C)n2)cc1 | – | inactive: 0.313%

Compound | Potency | activity change, negative = inhibition
Cc1ccc(S(=O)(=O)N/N=C\c2cc([N+](=O)[O-])ccc2Cl)cc1 | inconclusive: 25.1 µM [quencher, side channel, partial curve] | –
O=C(CN1CCN(c2ncc(C(F)(F)F)cc2Cl)CC1)N1CCN(c2ncc(C(F)(F)F)cc2Cl)CC1 | – | inactive: 1.58%
CCOc1ccccc1NC(=O)COC(=O)c1cc[n+]([O-])cc1 | inconclusive: 12.6 µM [quencher, side channel, partial curve] | –
CCn1nc(NC(=O)c2ccncc2)c2cc3cc(C)ccc3nc21 | inconclusive: 28.2 µM [quencher, side channel, single point] | –
NC(=S)N=Nc1c(O)n(CCCl)c2ccc(Cl)cc12 | inconclusive: 3.16 µM [quencher, side channel, full curve, poor fit] | –
CN(C)S(=O)(=O)c1ccc(/C(O)=C2/C(=O)C(=O)N(Cc3cccnc3)C2c2ccco2)cc1 (stereo not given) | inconclusive: 20 µM [quencher, side channel, single point] | –
CCOc1ccc(C2=Nn3c(nnc3-c3ccccn3)SC2)cc1 | inconclusive: 28.2 µM [quencher, side channel, partial curve] | –
O=C(Cn1cnc2cc([N+](=O)[O-])ccc2c1=O)NCCc1ccc(Cl)cc1 | inconclusive: 7.94 µM [quencher, side channel, partial curve] | –
Cn1c(SCc2ccc(Cl)cc2)nnc1C1CC1 | inconclusive: 39.8 µM [quencher, side channel, single point] | –
CCOC(=O)N1CCN(S(=O)(=O)c2ccc(C(=O)Nc3nnc(C4CC4)o3)cc2)CC1 | – | inactive: -12.1%
COc1ccc(CNC(=O)c2c(O)c3cccc4c3n(c2=O)CCC4)cc1 | inconclusive: 79.4 µM [inhibitor, single point] | –
CCCn1c(N2CCN(CC(=O)NCc3cccs3)CC2)nc2ccccc21 | – | inactive: -4.72%
COCCn1cnc2c(c1=O)c1nc3ccccc3nc1n2/N=C/c1ccco1 | inconclusive: 4.47 µM [quencher, side channel, full curve] | –
Cc1cc(Nc2ccc([N+](=O)[O-])cc2)c2ccccc2n1 | inconclusive: 3.98 µM [quencher, full curve] | –
O=C(Nc1ccccc1)/C(=C/c1cccc(Br)c1)NC(=O)c1ccco1 | inconclusive: 0.1 µM [fluorescent, side channel, full curve] | –
COc1ccc(C(=O)NCC(=O)N/N=C/C(C)=C/c2ccco2)cc1OC | inconclusive: 31.6 µM [quencher, side channel, partial curve] | –
CCOC(=O)COc1ccc2nsnc2c1 | inconclusive: 12.6 µM [quencher, side channel, partial curve] | –
Cc1ccc(CCNC(=O)C2CCC(=O)N2CCc2ccccc2)cc1 (stereo not given) | – | inactive: -0.905%
CCOc1ccc2ccccc2c1/C=N/n1cncn1 | inconclusive: 17.8 µM [quencher, side channel, partial curve] | –
Cc1cccc(C(=O)O/N=C(\N)Cc2ccc([N+](=O)[O-])cc2)c1 | inconclusive: 25.1 µM [quencher, side channel, single point] | –

Compound | Potency | activity change, negative = inhibition
O=C(c1ccc(Cn2cc(Cl)c([N+](=O)[O-])n2)cc1)N1CCN(Cc2ccccc2)CC1 | inconclusive: 28.2 µM [quencher, side channel, partial curve] | –
Clc1cccc(-c2ccc(/C=N/n3cnnc3)o2)c1 | inconclusive: 12.6 µM [quencher, side channel, partial curve] | –
C=CS(=O)c1sc(Cl)c(N2CCOCC2)c1[N+](=O)[O-] (stereo not given) | inconclusive: 17.8 µM [quencher, side channel, partial curve] | –
COc1ccc(C(=O)c2sc(NC(C)C)nc2N)cc1OC | – | inactive: 13.2%
O=C(c1cc([N+](=O)[O-])ccc1N1CCOCC1)N1CCCCC1 | inconclusive: 11.2 µM [quencher, side channel, full curve, poor fit] | –
COc1cc(OC)cc(C(=O)NC(=S)NCc2ccco2)c1 | – | inactive: 7.32%
COc1ccc(C=Nc2cccnc2N)cc1 | inconclusive: 14.1 µM [quencher, side channel, partial curve] | –
O=S(=O)([O-])C/C(=C\c1ccc(Cl)cc1)c1cc[n+](CCO)cc1 | inconclusive: 39.8 µM [quencher, single point] | –
CC(C)C(=O)Nc1cccc(C(=O)Nc2cc([N+](=O)[O-])ccc2Cl)c1 | inconclusive: 15.8 µM [quencher, side channel, partial curve] | –
CCC(=O)c1ccc(OCC(=O)OCC(=O)NCC2CCCO2)cc1 (stereo not given) | – | inactive: -2.23%
CCN=C1S/C(=C\c2ccc(O)c(OCC)c2)C(=O)N1CC | inconclusive: 39.8 µM [quencher, side channel, partial curve] | –
CC(=O)Nc1ccc(-c2csc(NCc3ccco3)n2)cc1 | inconclusive: 12.6 µM [quencher, side channel, partial curve] | –
O=C(NCc1ccccn1)C(=O)N/N=C/c1ccc2c(c1)OCO2 | inconclusive: 28.2 µM [quencher, single point] | –
COc1cccc(/C=C2\Oc3cc(OCC(=O)N4CCC[C@H]4C(=O)O)ccc3C2=O)c1 | inconclusive: 22.4 µM [quencher, side channel, partial curve] | –
COc1ccc(Nc2ccc(C(N)=O)cc2[N+](=O)[O-])cc1 | inconclusive: 7.08 µM [quencher, side channel, partial curve] | –
CC(C)NC1=C(Cl)C(=O)c2ccccc2C1=O | inconclusive: 10 µM [quencher, side channel, partial curve] | –
Cc1c(C(=O)c2cccc([N+](=O)[O-])c2)c2ccccn2c1CCC#N | inconclusive: 10 µM [quencher, side channel, partial curve] | –
Cc1ccc(N(CCC(=O)O)S(=O)(=O)c2ccccc2)cc1 | – | inconclusive: -18.9% [phenotype inactive]
CCOC(=O)CC(=O)CSc1nc2c(cc1C#N)CCC2 | inconclusive: 17.8 µM [quencher, side channel, partial curve] | –
CCCn1nnc(NC(=O)c2ccc([N+](=O)[O-])cc2Cl)n1 | inconclusive: 15.8 µM [quencher, partial curve] | –
